Source: PubChem BioAssay AID1745853 (National Center for Advancing Translational Sciences (NCATS), 2022)
Some of the results follow. Further columns of the screen follow, without active or inactive calls.

Assays:
Assay in all cases: Primary Screen for Target Class Profiling of Small Molecule Inhibitors of Methyltransferases
[1] = target: Glycine N-methyltransferase (Homo sapiens) (UniProt Q14749); conditions: purified enzyme, MTase-Glo SAH luminescence; measured here: GNMT inhibition; at 40 µM; stronger effect = lower value
How it was run: (§1)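 Each enzyme was reacted with SAM and its substrate, with compounds tested once at 40 uM; SAH formed was read by MTase-Glo luminescence.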

[2] = target: Guanidinoacetate N-methyltransferase (Homo sapiens) (UniProt Q14353); conditions: purified enzyme, MTase-Glo SAH luminescence; measured here: GAMT inhibition; at 40 µM; stronger effect = lower value
How it was run: as §1

[3] = target: Histamine N-methyltransferase (Homo sapiens) (UniProt P50135); conditions: purified enzyme, MTase-Glo SAH luminescence; measured here: HNMT inhibition; at 40 µM; stronger effect = lower value
How it was run: as §1

[4] = target: Nicotinamide N-methyltransferase (Homo sapiens) (UniProt P40261); conditions: purified enzyme, MTase-Glo SAH luminescence; measured here: NNMT inhibition; at 40 µM; stronger effect = lower value
How it was run: as §1

[5] = target: Phenylethanolamine N-methyltransferase (Homo sapiens) (UniProt P11086); conditions: purified enzyme, MTase-Glo SAH luminescence; measured here: PNMT inhibition; at 40 µM; stronger effect = lower value
How it was run: as §1
% is scaled to controls: 0 for no effect and ±100 for the full control effect.

Row | SMILES | activity change, negative = inhibition [1] | activity change, negative = inhibition [2] | activity change, negative = inhibition [3] | activity change, negative = inhibition [4] | activity change, negative = inhibition [5]
1 | C[C@@H](c1nc(-c2ccc(C#N)cc2)cs1)[C@](O)(Cn1cncn1)c1cc(F)ccc1F | -13% | -12.8% | -11.8% | -21.3% | -6.11%
2 | CCCN1C(=O)c2c(C(=O)NCCc3ccc(OC)cc3OC)ncn2CC1(C)C(=O)NC1CCCC1 (stereo not drawn) | -2.91% | 0% | -1.72% | -0.128% | -0.163%
3 | N#Cc1ccc(S(=O)(=O)N2CCc3n[nH]c(=O)n3CC2)cc1 | -1.61% | 1.95% | 0.689% | 3.16% | 6.7%
4 | CC1CCC(NC(=O)C2(C)Cn3c(ccc3-c3ccco3)C(=O)N2C2CCCCC2)CC1 (stereo not drawn) | -2.39% | 0% | 1.17% | -6.02% | -2.26%
5 | C[S+](=O)([O-])N1Cc2ccccc2CC2(CCN(CC3CCCCC3)CC2)C1 | -4.92% | -3.65% | -2.98% | -10.1% | -1.91%
6 | CCn1nc(C2CCN(C(=O)CCO)CC2)nc1-c1cnc(N)c(-c2nnc(C(C)(C)C)o2)n1 | -20.7% | -3.23% | -9.85% | -22.6% | -9.85%
7 | c1cncc(CN2CCOC[C@H]2c2ncc(-c3cccnc3)[nH]2)c1 | -2.34% | -14.1% | -1.75% | -9.69% | -4.06%
8 | CC(C)C(=O)N[C@H]1[C@H](O)[C@H](O)C[C@@H]1c1ccc(C(F)(F)F)nc1 | -3.12% | -8.37% | -0.972% | -11.2% | -8.39%
9 | Cc1cc(N2CCC(NCc3cc(C)nn3C)CC2)nc(-c2ccccc2)n1 | -2% | 1.64% | -2.59% | -7.36% | -1.82%
10 | COCC(=O)N(C[C@H]1O[C@@H](CC(=O)NC2CC2)[C@H](O)[C@@H]1O)C[C@H]1O[C@@H](CC(=O)NC2CC2)[C@H](O)[C@@H]1O | -4.05% | -4.5% | -0.995% | -10.9% | -15.2%
11 | Fc1ccc(C(c2ccc(F)cc2)N2CCNCC2)cc1 |  | -1.33% |  | -20.1% | 4.5%
12 | COCCCNC(=O)C1(C)Cn2nc(-c3ccccc3)cc2C(=O)N1c1ccc(F)cc1 (stereo not drawn) | 4.53% | 0% | 3.37% | 9.49% | -2.34%
13 | CCC(C)NC(=O)c1ccc2c(=O)n(C)c3nn(Cc4ccc(C)cc4)c(=O)n3c2c1 (stereo not drawn) | 1.87% | 1.53% | 4.07% | -1.09% | 3.97%
14 | CCN1CCCC2(CCN(C(=O)CCc3n[nH]c(C)c3C)C2)C1=O (stereo not drawn) | -2.68% | -6.45% | -0.955% | -4.38% | -3.45%
15 | Cc1ccc(NC(=O)Cn2c(=O)oc3cc(S(=O)(=O)N4CCCCC4)ccc32)cc1C | -2.33% | 0.945% | 4.79% | -4.55% | -7.79%
16 | C=Cc1ccc(Cn2nc3n(C(C)C)c(=O)c4ccc(C(=O)NC(C)CC)cc4n3c2=O)cc1 (stereo not drawn) | -4.03% | -14.4% | 0.422% | -6.21% | -8.64%
17 | Cc1cc2c(cc3n2CC(C)(C(=O)NC2CCCCCC2)N(C2CCCCC2)C3=O)o1 (stereo not drawn) | 3.65% | -7.21% | 8.15% | 0.677% | -0.05%
18 | CN1C[C@H](C(=O)Nc2ccncn2)C[C@H]1c1cccc(C(F)(F)F)c1 | -5.88% | -4.56% | -5.58% | -15.2% | -25.4%
19 | C=C(C(=O)O)[C@H]1C[C@]2(C)[C@@H](O)CC[C@]23O[C@H]1C[C@@H]3C | -0.313% | 4.01% | 8.93% | -8.7% | 4.19%
20 | CCn1cc(S(=O)(=O)NCC2Cn3cccc3CN2Cc2ccccc2)cn1 (stereo not drawn) | -10.9% | -7.24% | -2.96% | -11.8% | -8.13%
21 | Cn1cc(-c2ccsc2)c2nc(CN3CCNC(=O)C3)cn2c1=O | -10.2% | -0.324% | 0.129% | -1.02% | -12%
22 | Cc1ccc(NC(=O)CN(C)S(=O)(=O)c2ccc3[nH]c4c(c3c2)CCCC4)cc1Cl | 2.57% | 0% | 0.956% | 1.95% | 2.87%
23 | Cc1cncc(C(=O)N2CC(CO)C3(CCNCC3)C2)c1 (stereo not drawn) | -2.99% | -2.84% | -0.65% | -3.4% | -0.114%
24 | O=C(c1ccncc1)N1CCC2(CC1)CN(c1ncccn1)CC2CO (stereo not drawn) | -0.78% | -1.99% | -0.308% | -4.07% | 7.14%
25 | CC(C)Cn1c(=O)c2cc(F)ccc2n2c(SCc3cccc(Cl)c3)nnc12 | -12.7% | 0% | 2.31% | -11.5% | 3.85%
26 | O=C(CCc1nnc2n(Cc3ccc(F)cc3)c(=O)c3ccccc3n12)NCCc1c[nH]c2ccccc12 | -6.41% | 2.06% | -2.98% | -4.46% | -5.57%
27 | COc1ccc(CN2C(=O)c3cc4ccccc4n3CC2(C)C(=O)NCCC(C)C)cc1 (stereo not drawn) | -6.85% | 4.66% | 1.17% | -0.239% | -1.5%
28 | CCC(C)N1C(=O)c2ccc(-c3ccco3)n2CC1(C)C(=O)NC1CCCCCCC1 (stereo not drawn) | -10.1% | 2.02% | -5.99% | -28.7% | -2.37%
29 | O=c1ccn([C@@H]2O[C@H](CO)[C@@H](O)[C@H]2O)c(=O)[nH]1 | 1.85% | 0.96% | 8.98% | -6.03% | 4.21%
30 | O=C(CCCc1cccs1)N1CCCC(O)(CN2CCCC2)C1 (stereo not drawn) | -0.35% | -3.41% | -0.296% | 2.11% | 1.88%
